Experimental data: article PMC4336329 (PLoS ONE, 2015)
About 2,200 (0.71%) of roughly 310,000 compounds showed an effect of 50% or more. Effects have a minus sign here. This is one part of the list.

biological target: human ether-à-go-go-related gene (hERG) potassium channel (human, UniProt Q12809); experiment: primary screen, population patch clamp on CHO cells stably expressing hERG
Sequence (Q12809 whole entry, looked up): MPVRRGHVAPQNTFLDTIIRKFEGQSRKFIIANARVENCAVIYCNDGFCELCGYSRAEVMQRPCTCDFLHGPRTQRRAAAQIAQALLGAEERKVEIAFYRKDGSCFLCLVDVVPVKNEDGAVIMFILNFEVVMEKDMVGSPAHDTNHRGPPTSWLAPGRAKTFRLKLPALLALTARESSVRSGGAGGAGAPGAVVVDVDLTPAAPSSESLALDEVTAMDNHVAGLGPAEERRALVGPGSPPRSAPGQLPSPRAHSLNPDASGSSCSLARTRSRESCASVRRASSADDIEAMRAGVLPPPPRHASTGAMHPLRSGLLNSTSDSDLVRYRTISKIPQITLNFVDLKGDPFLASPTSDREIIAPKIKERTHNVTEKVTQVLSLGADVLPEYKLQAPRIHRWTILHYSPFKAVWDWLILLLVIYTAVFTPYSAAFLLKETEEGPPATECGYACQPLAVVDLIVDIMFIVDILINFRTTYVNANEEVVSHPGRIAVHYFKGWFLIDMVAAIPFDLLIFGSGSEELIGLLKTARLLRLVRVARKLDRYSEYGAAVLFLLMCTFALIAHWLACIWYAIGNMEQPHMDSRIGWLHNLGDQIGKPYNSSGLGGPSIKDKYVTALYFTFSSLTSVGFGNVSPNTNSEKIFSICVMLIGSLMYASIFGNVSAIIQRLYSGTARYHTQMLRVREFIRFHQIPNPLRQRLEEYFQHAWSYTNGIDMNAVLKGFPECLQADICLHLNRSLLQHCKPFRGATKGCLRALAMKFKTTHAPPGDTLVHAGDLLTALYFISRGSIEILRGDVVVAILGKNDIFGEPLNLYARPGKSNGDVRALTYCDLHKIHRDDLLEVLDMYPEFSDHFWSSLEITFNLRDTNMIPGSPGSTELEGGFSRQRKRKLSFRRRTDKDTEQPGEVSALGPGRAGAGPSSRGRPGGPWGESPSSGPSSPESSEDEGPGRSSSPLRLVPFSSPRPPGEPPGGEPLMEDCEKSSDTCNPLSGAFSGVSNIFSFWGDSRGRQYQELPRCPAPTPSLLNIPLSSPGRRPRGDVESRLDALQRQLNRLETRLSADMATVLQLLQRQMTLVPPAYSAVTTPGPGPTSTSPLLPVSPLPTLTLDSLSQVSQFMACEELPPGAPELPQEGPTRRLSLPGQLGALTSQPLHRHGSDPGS

In order of falling “hERG current change (%, negative = inhibition) at 1uM” value:
1. CCn1c(=O)c([N+](=O)[O-])c(NCCN(C)C)c2ccccc21  19.4%
2. Cc1ccc(F)c(NC(=O)CCc2ccccc2)c1  13.5%
3. OC[C@H]1OC(O)[C@@H](O)[C@@H](O)[C@@H]1O (stereo partly shown)  13.2%
4. O=C(CSc1ccc2c(c1)OCCO2)Nc1cccc(S(=O)(=O)N2CCCCC2)c1  12.7%
5. O=C(NC1(C(F)(F)F)NC(=O)N(C2CCCCC2)C1=O)C1CC1 (stereo not shown)  12.2%
6. O=C(COC(=O)/C=C/c1cccc(Br)c1)NCc1ccco1  11.7%
7. COc1cc(/C=N/NC(=O)c2ccc(CN3C(=O)c4cccc5cccc3c45)cc2)cc(OC)c1O  11.2%
8. O=C(N/N=C/c1cccc([N+](=O)[O-])c1)c1cc(-c2ccc3c(c2)OCO3)n[nH]1  11%
9. COc1cc(S(=O)(=O)n2nnc3ccccc32)c(OC)cc1Cl  10.6%
10. COc1cc(OC)cc(-c2nn[nH]n2)c1  10.2%
11. Cc1ccc(NC(=O)C2=NNC(=O)CC2)cc1F  10.1%
12. CCOC(=O)CN1N=C(/C=C/c2ccc(C(C)C)cc2)CCC1=O  9.01%
13. O=C(CSc1nc(=O)n2ccccc2n1)NCc1ccccc1  8.87%
14. CC(C)c1ccc(NC(=O)c2ccc(Br)o2)cc1  8.71%
15. CN(c1ccc(C(=O)Nc2cccc(O)c2)cc1)S(=O)(=O)c1ccccc1  7.55%
16. Cc1ccc(S(=O)(=O)NC(=O)COc2ccc([N+](=O)[O-])cc2)cc1  7.29%
17. O=C(CSc1nc2c(cnn2-c2ccccc2)c(=O)[nH]1)c1ccc(Cl)cc1  7.01%
18. COc1ccc(CC(=O)NCC(=O)N/N=C(/C)c2ccco2)cc1  5.67%
19. COC(=O)CC1C(=O)NCCN1C(=S)NC(=O)c1ccccc1[N+](=O)[O-] (stereo not shown)  5.3%
20. COc1ccc(NC(=S)N(CCCN2CCOCC2)Cc2ccco2)cc1  2.16%
21. Cc1[nH]c2ccccc2c1C(=O)C(=O)N1c2ccccc2CC1C (stereo not shown)  2.09%
22. CN(C)c1cc(-c2cccc([N+](=O)[O-])c2)oc(=O)c1Cl  1.79%
23. CN(C)CCN(C(=O)c1ccc2c(c1)OCCO2)c1nc2c(Cl)cccc2s1.Cl  0.945%
24. CC(c1ccccc1)N1CC(C(=O)NC2CCCC2)CC1=O (stereo not shown)  -4.04%
25. CCc1c(C)nc(N)n2c(SCC(=O)N3CCCC(C)C3)nnc12 (stereo not shown)  -5.85%
